B1: Fusion protein 9 (other)
heavy: QVQLVQSGAEVKKPGASVKVSCKASGYTFTSYWMHWVRQAPGQGLEWMGRIGPNSGFTSYNEKFKNRVTMTRDTSTSTVYMELSSLRSEDTAVYYCARGGSSYDYFDYWGQGTTVTVSSASTKGPSVFPLAPCSRSTSESTAALGCLVKDYFPEPVTVSWNSGALTSGVHTFPAVLQSSGLYSLSSVVTVPSSSLGTKTYTCNVDHKPSNTKVDKRV[gap - human IgG4 Fc with S228P F234A L235A (EU numbers)]AGGGGSGGGGSGGGGSGGGGSGGAVKFPQLCKFCDVRFSTCDNQKSCMSNCSITSICEKPQEVCVAVWRKNDENITLETVCHDPKLPYHDFILEDAASPKCIMKEKKKPGETFFMCSCSSDECNDNIIFSEEYNTSNPD
light: DIVLTQSPASLAVSPGQRATITCRASESVSIHGTHLMHWYQQKPGQPPKLLIYAASNLESGVPARFSGSGSGTDFTLTINPVEAEDTANYYCQQSFEDPLTFGQGTKLEIKRTVAAPSVFIFPPSDEQLKSGTASVVCLLNNFYPREAKVQWKVDNALQSGNSQESVTEQDSKDSTYSLSSTLTLSKADYEKHKVYACEVTHQGLSSPVTKSFNRGEC
B2: M7824 (other)
heavy: EVQLLESGGGLVQPGGSLRLSCAASGFTFSSYIMMWVRQAPGKGLEWVSSIYPSGGITFYADTVKGRFTISRDNSKNTLYLQMNSLRAEDTAVYYCARIKLGTVTTVDYWGQGTLVTVSSASTKGPSVFPLAPSSKSTSGGTAALGCLVKDYFPEPVTVSWNSGALTSGVHTFPAVLQSSGLYSLSSVVTVPSSSLGTQTYICNVNHKPSNTKVDKRV[gap - human IgG1 Fc]GGGGSGGGGSGGGGSGGGGSGIPPHVQKSVNNDMIVTDNNGAVKFPQLCKFCDVRFSTCDNQKSCMSNCSITSICEKPQEVCVAVWRKNDENITLETVCHDPKLPYHDFILEDAASPKCIMKEKKKPGETFFMCSCSSDECNDNIIFSEEYNTSNPD
light: QSALTQPASVSGSPGQSITISCTGTSSDVGGYNYVSWYQQHPGKAPKLMIYDVSNRPSGVSNRFSGSKSGNTASLTISGLQAEDEADYYCSSYTSSSTRVFGTGTKVTVLGQPKANPTVTLFPPSSEELQANKATLVCLISDFYPGAVTVAWKADGSPVKAGVETTKPSKQSNNKYAASSYLSLTPEQWKSHRSYSCQVTHEGSTVEKTVAPTECS

Target: human TGF-β1 (human, UniProt P01137 fragment)
Chain of UniProt P01137 (P01137 279-390 limits assumed): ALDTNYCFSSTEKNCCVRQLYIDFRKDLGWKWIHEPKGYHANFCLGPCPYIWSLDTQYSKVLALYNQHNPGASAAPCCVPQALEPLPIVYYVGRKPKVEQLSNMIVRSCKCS
Experiment: cell-based or functional assay

Binder | IC50 (read off the curve) [nM]
B1 | ~0.03
B2 | ~0.02
